Test results published in article PMC5460246.
Results are given in words; binding and its absence hold for the method and conditions named. For some assays here: In cells and extracts the contact can be indirect. Some results given as binding are weak or reduced against the parent protein; the word gives no strength. For some assays here: Tags and fused reporters may be left off the sequences shown.

T1: Fkh2 full-length (two-hybrid bait) (budding yeast) (UniProt P41813)
T1 sequence: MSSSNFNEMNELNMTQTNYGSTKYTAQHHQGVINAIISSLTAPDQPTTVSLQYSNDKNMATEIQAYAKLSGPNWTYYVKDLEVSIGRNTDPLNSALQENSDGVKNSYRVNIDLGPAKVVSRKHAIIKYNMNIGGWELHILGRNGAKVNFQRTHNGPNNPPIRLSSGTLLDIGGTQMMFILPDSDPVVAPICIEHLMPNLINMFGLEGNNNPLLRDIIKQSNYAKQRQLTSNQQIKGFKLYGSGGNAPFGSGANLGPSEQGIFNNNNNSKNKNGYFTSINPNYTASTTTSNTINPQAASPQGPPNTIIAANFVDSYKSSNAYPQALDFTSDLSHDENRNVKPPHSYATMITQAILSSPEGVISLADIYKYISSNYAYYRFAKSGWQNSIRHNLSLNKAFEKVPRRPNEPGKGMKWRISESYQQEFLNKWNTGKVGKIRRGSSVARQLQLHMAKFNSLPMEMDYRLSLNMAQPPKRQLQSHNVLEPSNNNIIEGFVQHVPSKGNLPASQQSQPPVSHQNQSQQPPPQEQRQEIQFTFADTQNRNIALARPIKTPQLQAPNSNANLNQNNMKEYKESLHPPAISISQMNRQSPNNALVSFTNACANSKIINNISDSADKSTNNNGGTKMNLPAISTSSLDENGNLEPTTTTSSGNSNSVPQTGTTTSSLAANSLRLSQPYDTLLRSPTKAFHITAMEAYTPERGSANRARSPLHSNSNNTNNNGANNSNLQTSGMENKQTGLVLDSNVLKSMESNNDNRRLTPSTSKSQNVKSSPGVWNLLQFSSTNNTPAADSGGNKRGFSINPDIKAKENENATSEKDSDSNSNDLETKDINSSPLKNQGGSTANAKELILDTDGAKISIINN

T2: LexA-Fkh2_(387), truncated C-terminal region of Fkh2 (amino acids 387-862) (budding yeast) (UniProt P41813)
T2 sequence: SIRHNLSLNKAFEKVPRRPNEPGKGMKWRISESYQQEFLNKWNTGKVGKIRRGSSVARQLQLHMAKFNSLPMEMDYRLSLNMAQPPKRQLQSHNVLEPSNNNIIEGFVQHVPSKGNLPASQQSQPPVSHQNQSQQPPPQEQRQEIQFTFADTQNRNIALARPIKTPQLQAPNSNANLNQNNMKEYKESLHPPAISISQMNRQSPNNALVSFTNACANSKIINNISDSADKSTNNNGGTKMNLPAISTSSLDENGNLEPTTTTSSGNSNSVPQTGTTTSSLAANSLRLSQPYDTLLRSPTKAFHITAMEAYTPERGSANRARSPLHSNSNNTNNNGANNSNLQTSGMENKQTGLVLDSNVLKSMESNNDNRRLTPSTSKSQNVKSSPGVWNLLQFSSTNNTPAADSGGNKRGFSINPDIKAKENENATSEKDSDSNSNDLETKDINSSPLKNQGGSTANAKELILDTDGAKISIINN

T3: Ndd1-VC (budding yeast) (UniProt Q08887)
T3 sequence: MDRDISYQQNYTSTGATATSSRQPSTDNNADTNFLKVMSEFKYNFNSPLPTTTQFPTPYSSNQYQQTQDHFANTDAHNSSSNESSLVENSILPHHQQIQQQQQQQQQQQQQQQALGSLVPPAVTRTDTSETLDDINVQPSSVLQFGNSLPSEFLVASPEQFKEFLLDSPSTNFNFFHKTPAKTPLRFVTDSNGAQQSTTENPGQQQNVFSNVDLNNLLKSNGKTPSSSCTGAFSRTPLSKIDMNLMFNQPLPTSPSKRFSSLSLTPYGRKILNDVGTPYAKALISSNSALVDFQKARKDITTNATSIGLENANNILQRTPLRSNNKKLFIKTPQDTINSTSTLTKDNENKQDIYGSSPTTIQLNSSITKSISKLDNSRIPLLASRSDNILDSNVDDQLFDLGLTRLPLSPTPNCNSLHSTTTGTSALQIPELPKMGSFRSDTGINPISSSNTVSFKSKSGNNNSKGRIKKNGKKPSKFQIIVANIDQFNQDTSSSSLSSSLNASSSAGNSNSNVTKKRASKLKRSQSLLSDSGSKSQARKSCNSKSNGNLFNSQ

B1: AD-Clb1 (protein, UniProt P24868 1-471)
chain: MSRSLLVENSRTINSNEEKGVNESQYILQKRNVPRTILGNVTNNANILQEISMNRKIGMKNFSKLNNFFPLKDDVSRADDFTSSFNDSRQGVKQEVLNNKENIPEYGYSEQEKQQCSNDDSFHTNSTALSCNRLIYSENKSISTQMEWQKKIMREDSKKKRPISTLVEQDDQKKFKLHELTTEEEVLEEYEWDDLDEEDCDDPLMVSEEVNDIFDYLHHLEIITLPNKANLYKHKNIKQNRDILVNWIIKIHNKFGLLPETLYLAINIMDRFLCEEVVQLNRLQLVGTSCLFIASKYEEIYSPSIKHFAYETDGACSVEDIKEGERFILEKLDFQISFANPMNFLRRISKADDYDIQSRTLAKFLMEISIVDFKFIGILPSLCASAAMFLSRKMLGKGTWDGNLIHYSGGYTKAKLYPVCQLLMDYLVGSTIHDEFLKKYQSRRFLKASIISIEWALKVRKNGYDIMTLHE
B2: AD-Clb4 (protein, UniProt P24871 1-460)
chain: MMLEGYTVQPPQSTLIGDIEIQDENANQEVKNVLYQGVQKGIKRLEKRQRRVALGDVTSQKANKIHNAIHNKFHQTKNNFEIENIRSSALVKEQQRDVRHEDSDYFLIDSSEGSSTDDEQVNEDAIDDLLSRRVNDQQIQADEVYEDFDGEMQDVIEEDVDSQIEPLSPINNDEIQTELDRAFEKYFRSVPNPLDDDTHDVVMVVEYASDIFYYLRELEVKYRPNPYYMQNQVELTWPFRRTMIDWLVQLHFRFQLLPETLYLTINIVDRFLSKKTVTLNRFQLVGVSALFIAAKFEEINCPTLDDLVYMLENTYTRDDIIRAEQYMIDTLEFEIGWPGPMPFLRRISKADDYDFEPRTLAKYLLETTIVEPKLVAAAPSWLAAGAYFLSRTILGSNDWSLKHVFYSGYTSSQIIPLASLILENCKNASRRHHSIWKKYFDQKHYRCSQIVEEWIVSTEA
B3: AD-Clb5 (protein, UniProt P30283 1-435)
chain: MGENHDHEQSIKRNSMIYNENERQLCNSNLKILQNKRALSKNDSSSKQQVQDSKPRRALTDVPVNNNPLSQNKRIVAGSKAAKVRREENIRPIVSAVQKRQIYNDRTAAEQEEEEEEEGEDDDAASIVNKKRRIDAEGVSEIVGWQDLDYVEKDDTAMVAEYSAEIFAFLYRRELETLPSHNYLLDKTSKYYLRPSMRTILVDWLVEVHEKFQCYPETLFLSINLMDRFLAKNKVTMNKLQLLAVTSLFIAAKFEEVNLPKLAEYAYITDGAASKNDIKNAEMFMLTSLEFNIGWPNPLNFLRRISKADDYDPVNRNIGKFILEYAYCCHQFIHLPPSTVSAMAMYIARRMTNRNKNELWNGTLQHYSGGIDPIHDEAFQSLCIDLVKDIASSKTHLDSLILKYKKPRYGSVYFQTFKWCTSEMHSNFQNLFNLK
B4: AD-Clb6 (protein, UniProt P32943 1-380)
chain: MNCIPSPISERKIQINNEDCIGKENAFHTIPRESSINLTPHSTNEKKVLSEVNSNKIDSLQLPRGKLQRDSTHLEKTRKRQLSNDSTDPIEPKTVKKIKCHQWKNLDSIEMDDPFMVAEYTDSIFSHLYEKEIQMLPTHNYLMDTQSPYHLKSSMRALLIDWLVEVHEKFHCLPETLFLAINLLDRFLSQNVVKLNKLQLLCITCLFIACKFEEVKLPKITNFAYVTDGAATVEGIRKAELFVLSSLGYNISLPNPLNFIRRISKADNYCIETRNMAKFIMEYSICCNKFIHLKPSYLAAMSMYIARKIKNENSKWDETFIHYSGGIDIESDPAFKDFISELVEDIAVPDTNLDSLRLKYKKPKHGMVYFKVFDWCKQKR
B5: VN-Fkh2 (protein, UniProt P41813 1-862)
chain: T1 sequence
B6: VN-Clb2 (protein, UniProt P24869 1-491)
chain: MSNPIENTENSQNTSSSRFLRNVQRLALNNVTNTTFQKSNANNPALTNFKSTLNSVKKEGSRIPQFTRESVSRSTAAQEEKRTLKENGIQLPKNNLLDDKENQDPSSQQFGALTSIKEGRAELPANISLQESSSAKEIIQHDPLKGVGSSTEVVHNSVENEKLHPARSQLQVRNTESETDSGKKRPISTIVEQELPKKFKVCDENGKEEYEWEDLDAEDVNDPFMVSEYVNDIFEYLHQLEVITLPKKEDLYQHRNIHQNRDILVNWLVKIHNKFGLLPETLYLAINIMDRFLGKELVQLDKLQLVGTSCLFIASKYEEVYSPSIKHFASETDGACTEDEIKEGEKFILKTLKFNLNYPNPMNFLRRISKADDYDIQSRTLAKFLLEISLVDFRFIGILPSLCAAAAMFMSRKMLGKGKWDGNLIHYSGGYTKEELAPVCHMIMDYLVSPIVHDEFHRKYQSRRFMKASIISVQWALKVRKNGYDIMTLHE
B7: VN-Clb3 (protein, UniProt P24870 1-427)
chain: MHHNSQSLSSGHIRSPEDENVAPIGNLKHRTGSLSHISSAHPRVALSDVTNIVATNSSNNSISKPKVAPIKERLDSAAIIEEERLDANSVAQRKEADHNDLLTDREQEEPVEDDGESEEDEEEDQEPLLLQHYASDTLVWEHAFRTYYRTTLDPNDDDVYDVVMVAELSNEIFEYMRKLEDLYKPNPYYMDKQPELRWSFRSTLIDWIVQVHEKFQLLPETLYLCINIIDRYLCKEVVPVNKFQLVGAASLFIAAKYEEINCPTIKDFVYMSENCYSRNDLLDAERTILNGLEFELGWPGPMSFLRRISKADDYEHDTRTLAKYLLESTIMDHRLVSAQPSWLAAGAYFLSKIILGQNQWSLAHVYYSNYTQEQILPLATIILENCRYASKRHNAIWRKYSSRRYLHSSQIVAKWIALAEHRVERSN

Legend:
[1] = target: T1, Fkh2 full-length (two-hybrid bait) (budding yeast); assay: two-hybrid; LexA-Fkh2 baits (pBTM117) and AD-Clb1-6 preys (pACT4), overexpressed; yeast spotted onto SDII and SDIV selective media or on a membrane for beta-galactosidase activity
[2] = target: T2, LexA-Fkh2_(387), truncated C-terminal region of Fkh2 (amino acids 387-862) (budding yeast); assay: as above
Ndd1-VC (budding yeast) = target: T3, Ndd1-VC (budding yeast); assay: split reporter; BiFC with Venus fragments: Ndd1-VC in haploid yeast cells, VN fusions from p426 plasmids; fluorescence microscopy; for Fkh2/Ndd1 followed in time after alpha-factor synchronisation and in hydroxyurea-treated cells

Binder	binding [1]	binding [2]	binding (Ndd1-VC (budding yeast))
B1	binds	binds	–
B2	binds	binds	–
B3	binds	binds	–
B4	binds	binds	–
B5	–	–	binds
B6	–	–	binds
B7	–	–	binds
